± gives the standard deviation of the averaged measurements. The list shows a part of the results.
Test system: PfAP2-I AP2 domain 3 (GST-tagged)
Test: gcPBM binding intensity (ln(normalized median fluorescence intensity)); higher = stronger DNA binding
In short: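 The binding buffer was 1× PBS containing 1% milk, 0.2 mg/ml BSA, 0.5% salmon testes DNA and 0.03% Triton X-100. In it, GST-tagged P. falciparum DNA-binding domains expressed in E. coli were applied for 1 h to an Agilent 4 × 180k array of primer-extended double-stranded 36-bp intergenic genomic probes plus negative controls. Binding intensity, read with Alexa488 anti-GST antibody and a 488 nm scan, is the highest Masliner-normalised natural-log median intensity across replicate spots of either probe orientation.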

Sequence	gcPBM binding intensity (ln)
TTCCTAATTGACAACACACACAACAAAAAAGGGATT [CACACA_site1279]	8.07 ± 0.66
AATGGTTTAAAATACTGTACATATATATAAAAGTAA [XGTACX_site6187]	7.91 ± 0.54
CACTAAAATAAACACACACACACACCGATATATATA [CACACA_site9379]	8.24 ± 0.68
TTAATTTTATTTTTTTGTACACATAAATATTATAAA [XGTACX_site4680]	8.02 ± 0.34
CTTGTCATTTTGCACACACACATGTATAGGTTATTA [CACACA_site7431]	9.9 ± 0.17
TATATTTATATGATAACACACATAAATTATACATTT [CACACA_site1671]	7.47 ± 0.45
AAAATAATAATTAATACATGCATTAATTCTTTTTTT [TGCATGCA_site741]	7.47 ± 0.71
ACTTCATTTTTTTTATGTACACAGAAGATTTACAAA [XGTACX_site4021]	8.44 ± 0.47
AGGAAAATAGAAAAAGCACACATATATTTTGGAATG [CACACA_site8080]	7.99 ± 0.64
ATTTATTTATTTTTTTGTACGAATGTTGCACATATA [XGTACX_site4101]	8.67 ± 0.099
CATATATTATTTAATAGTACATATAAAAGAAAAAAA [XGTACX_site4643]	7.78 ± 0.34
TATATAAATAAATGTGTACACACATTAAAATCAAAC [CACACA_site8733]	8.2 ± 0.2
TATATACATATATATACACACATATATATATTTTAT [CACACA_site3788]	7.54 ± 0.49
GAAATAATTGTTAAAGGTACACAATGCATATACAAT [XGTACX_site238]	8.04 ± 0.64
ATAATATATACTAAAAGTACATATTATAATAAATTA [XGTACX_site6749]	7.3 ± 0.27
GAATGAAAATAAAATTGTACACATATCTATATCTAT [XGTACX_site2642]	7.67 ± 0.46
TTTAATTAGGATAATTGTACTGAACTAAGTATATTT [XGTACX_site1871]	7.59 ± 0.59
AAAAAAAAAAAAAGTTGTACATTATTTTCCTAATTC [XGTACX_site7998]	7.76 ± 0.56
TATATTATATGTATTGCACACCTTCAACAACTACTT [CACACA_site8121]	10.3 ± 0.23
ATACATATATATGTGTGTACATATGTGTATACATTT [XGTACX_site6544]	7.96 ± 0.45
TTTTATAAATCTAAACGTATCTAAATGAATAATTAA [GTGCAC_negctrl_site44]	7.37 ± 0.48
ATATGTATTAAGTGTACACATATAATGGGTTTGTTA [CACACA_site5682]	7.96 ± 0.45
ATATATGTACAAATTGTGCGCAATAATTTTGTCTTT	9.06 ± 0.33

Sequence	gcPBM binding intensity (ln)
TCTTTATGTAAGGTCTTCCACAAAAAAATTAAAAAA [TGCATGCA_negctrl_site229]	7.79 ± 0.41
GAAAAATTAATAAATAAACACACATATATATATATA [CACACA_site8835]	9.68 ± 0.57
ATATATTATAGAGGTGTGCACTACATACATTATAAT [GTGCAC_site9991]	10.9 ± 0.4
ATAGAAACATATTGACGTACAGTATAATAATACAGT [XGTACX_site197]	8.16 ± 0.42
AAATCAACTTATTTTTGTACATATATTTATTATATA [XGTACX_site2925]	8.16 ± 0.36
GAATACATAATAACATGTACACACATTCTTCTATAA [XGTACX_site8725]	7.89 ± 0.58
TATATATATAGAAATGCATGTTAATAAAAGTTATAA [TGCATGCA_site947]	8.56 ± 0.67
TATCATAAAAAATATACACACAAAGGATATTTATAT [CACACA_site6841]	7.69 ± 0.81
TATGAACACCAACACACACACAAAAAAAAAAAAAAA [CACACA_site2013]	8.1 ± 0.38
TATATATTTAATTTCACACATATATATAATTATTAT [CACACA_site4936]	7.71 ± 0.4
TTTTTTATTTTAAAAACATGCATAAAATATAATAGT [TGCATGCA_site762]	8.16 ± 0.45
AGATAAAAAAAGTACACACACACATATATTTATATA [CACACA_site7437]	7.98 ± 0.2
ATACACACTTAAAAAAGTACTTAACTACATGAATTG [XGTACX_site1203]	7.77 ± 0.54
ATATTATATATAAAATGTACATTTAAAAATATTATA [XGTACX_site889]	7.54 ± 0.23
TTGTTTTCTTATTATTACTACAATACTTAAGTCAGA [TGCATGCA_negctrl_site184]	7.8 ± 0.39
TATTTATTTATGGACACACATACAAATCTTCCAGAC [CACACA_site942]	7.92 ± 0.43
TAATCATAACTTGATACGCACACGTTATATAAATAA [CACACA_site1579]	7.92 ± 0.3
TTTTTTTTTTTTTAAACATGCATAATAAATATAATA [TGCATGCA_site265]	8.19 ± 0.86
TTTTTTATTTTGTGCACACACATAAAAATATATATA [CACACA_site761]	11.2 ± 0.31
TTTTGTTGGATACAAAAATTACAAATTATTTAAAAA [TGCATGCA_negctrl_site532]	7.54 ± 0.43
TTTTTCAGAAAAGAAACACACATATTTATATTTATA [CACACA_site7167]	7.51 ± 0.48
TATATGTATATATATTAACACACAAAAAAAAAAAAA [CACACA_site8534]	8.1 ± 0.64
TAAACAAATAAATAAACACACAATATCTGTATTTAT [CACACA_site5978]	7.46 ± 0.55

Sequence	gcPBM binding intensity (ln)
ATTAAATCGATATATACACACATGTTTGGTATATTC [CACACA_site7285]	7.58 ± 0.61
TTAAAATAAAGTAGTGGTACAAAAAAAAAAAAAAAA [XGTACX_site6322]	8.12 ± 0.65
TAACCTATAATATTCACACACATATAAATATTATAG [CACACA_site6592]	7.76 ± 0.3
TTTTACTTAAAACACACACACACAAAAAAAAAAAAA [CACACA_site947]	8.1 ± 0.54
AGTAATAGTTTGTGCACACTCAAGTATATCATATAT [CACACA_site4034]	10.9 ± 0.24
AAAAAAAATATAATATGTACATATCTATATATCAAC [XGTACX_site4881]	7.83 ± 0.46
TATACATATGAAAATACACACATACATACAGATATA [CACACA_site5002]	7.65 ± 0.31
AACAAATATATATGTAGTACATGTTGTAGATAATTT [XGTACX_site24]	7.93 ± 0.41
TTTTTTTTTTTAAATTCACACAATATATAAATATTG [CACACA_site5201]	7.82 ± 0.76
AGAAAAATTATTTTGCGTACATATTTACAATAAAAA [XGTACX_site2144]	7.96 ± 0.44
TACGTAAAATAATTGAGTACATAATTATATATATAT [XGTACX_site5361]	9.17 ± 0.071
AAAAATAATCATTAGGTGCAAAAAATATATATATAT [GTGCAC_site9631]	10.5 ± 0.15
GTACATTATTTATATACACACAAAGAAAAATATACA [CACACA_site3452]	7.95 ± 0.46
TTTAAAATATATAGTACACACGTGAACACAAATACA [CACACA_site4392]	7.96 ± 0.32
TAAAGCATATTATAAACACACACTGTATAAAGATAT [CACACA_site296]	7.78 ± 0.76
CCTTTTTTGTTTTATGCACACCATATAACCAAGGCT [CACACA_site7893]	10.5 ± 0.48
TAAATGTCCTTATTTGCACACACACCCATAAGAAAT [CACACA_site3185]	9.98 ± 0.28
TATATATAAAAATATACACACACAAATGTATATATA [CACACA_site7956]	7.47 ± 0.32
ATGTAATGAAACATTGCACACATATAATAATATAAT [CACACA_site8402]	8.365 ± 0.049
TTTTTATATGCGTATTGTACATTATACATATATATA [XGTACX_site6786]	7.97 ± 0.38
CGTATATATAAATACACACACATATATATCTGTAAA [CACACA_site4272]	7.79 ± 0.48
TTAATTTATTTATGCACACATATATAATTACCCATA [CACACA_site682]	10.2 ± 0.67
AAAAAAAAAAAAAAGCGTACAAATAAAATATATTTA [XGTACX_site7195]	8.18 ± 0.38

Sequence	gcPBM binding intensity (ln)
AATTAAATTACTTATACACACATAAAATGGGTGTAT [CACACA_site4703]	7.37 ± 0.56
ATTCTTATAACAAGAAGTACAAATATATGTATATAT [XGTACX_site4528]	7.84 ± 0.27
TTTTTTTTTAAGATGAAGATCAATATATAAATATAT [CACACA_negctrl_site1538]	7.29 ± 0.67
TTTTCTCTCAAAAAATGTACATAATATATATATTTT [XGTACX_site4861]	7.82 ± 0.47
AGAATATCAAAATAAAGTACATTTATTATATATATG [XGTACX_site7100]	7.55 ± 0.29
AAAAAAAAAAAACATACACACATACATACCTATATA [CACACA_site6575]	7.63 ± 0.34
AACATCAATTTATTTTCTTACATTATACGATTCATG [CACACA_negctrl_site1300]	7.64 ± 0.62
AAAAAAAAATCAAAATGTACTTATTTTTATAATAAT [XGTACX_site4712]	7.51 ± 0.33
TAATTATGCCAACACACACACACACCCAACTAAAAA [CACACA_site8823]	8.22 ± 0.25
AAACATAAGAAACACACACACATATATATATATATA [CACACA_site3642]	9.36 ± 0.32
ATGATGTGCAAGAGTAGTACACAATTTTGGGTTTAT [XGTACX_site501]	8.6 ± 0.26
ATTAATTATATATATACACACACATACACCCAAATA [CACACA_site9126]	8.52 ± 0.16
TAAATACTTCGTAAAACACACAAGTAGAAAAAAAAA [CACACA_site360]	7.81 ± 0.71
AAAAATATAATATATGCACACATACATACATATATA [CACACA_site7915]	9.06 ± 0.057
ATAATTAGTTCAATTTTTTTTTTTTTTTTTTTTTTT [CACACA_negctrl_site1371]	9.525 ± 0.021
AAACAAAACAAAACATGTACACATTATATATATATA [XGTACX_site3374]	9.29 ± 0.53
TTATTTATTTATTGTTGTACACAAAATGATTCTTAA [XGTACX_site6480]	8.18 ± 0.33
TTCTAATAAATGTGTTGTACACCTTTAGCAACTATT [XGTACX_site3235]	7.96 ± 0.37
TATATAAATATATACACACATACATACATACATATA [CACACA_site3835]	7.72 ± 0.42
TAATAATTACAAAGAAGTACATAAAAAAAAATTTAT [XGTACX_site4684]	7.67 ± 0.73

From the supplement of paper PMC11417369
